# Laboratory results reported in PubChem BioAssay (NCATS).
# Values joined by “and” are separate entries in the source; they are usually repeats but may differ in a detail not shown here. Identical values can stand only once. This list was built around the results that the source calls inconclusive (neither active nor inactive); the mix of calls is not that of the screen. Potencies of inconclusive entries are doubtful fits and often do not repeat. Some structures have more than one record in an assay (separate samples or runs), and their calls can disagree. Active and inactive are the calls of the source. The call rests on the fitted dose curve; in most records, active means well fitted curve in the direction sought with a large enough effect; inconclusive means small, poorly fitted or top-dose-only effect, or another doubt; inactive means no such curve, though single readings can be large; an effect the other way counts as inactive or inconclusive.
# Legend:
# KB-3-1 = experiment: Cytotoxic Profiling of Annotated Libraries Using Quantitative High-Throughput Screening (AID 1296008); details: Five cell lines viability, CellTiter-Glo ATP luminescence, 48-72 h; max response: stronger effect = lower value; further: nearly all actives have a fitted effect of over 60% in size
# Outline: (§1)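 Cytotoxicity was measured as CellTiter-Glo ATP luminescence, read after 10 min at room temperature. Compound treatment of the cells lasted 48 or 72 hr at 37 degrees Celsius in a qHTS format.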
# NIH3T3 = experiment: as above; details: Five cell lines viability, CellTiter-Glo ATP luminescence, 48-72 h; max response: stronger effect = lower value
# Outline: as §1
# UISO = experiment: qHTS assay to identify novel small-molecules to repurpose for Merkel cell carcinoma treatment (AID 1296009); details: MCC and control cell lines, CellTiter-Glo viability, 72 h; series mostly up to 46 µM; further: nearly all actives have a fitted effect of over 60% in size
# Outline: (§2)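 Cell viability, measured as CellTiter-Glo luminescence, was normalized between DMSO and no-cell wells. The cells had been exposed to 8- or 11-point compound dilutions for 72 hr at 37 degree celsius.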
# MCC-13 = experiment: as above; details: MCC and control cell lines, CellTiter-Glo viability, 72 h; series mostly up to 46 µM
# Outline: as §2
# MCC-26 = experiment: as above; details: MCC and control cell lines, CellTiter-Glo viability, 72 h; series mostly up to 46 µM
# Outline: as §2
# WaGa = experiment: as above; details: MCC and control cell lines, CellTiter-Glo viability, 72 h; series mostly up to 46 µM
# Outline: as §2
# MKL-1 = experiment: as above; details: MCC and control cell lines, CellTiter-Glo viability, 72 h; series mostly up to 46 µM
# Outline: as §2
# MKL-2 = experiment: as above; details: MCC and control cell lines, CellTiter-Glo viability, 72 h; activity change, negative = cytotoxicity: at 46 µM (top of the series)
# Outline: as §2
# C33A = experiment: Primary qHTS to identify gynecologic anti-cancer compounds using libraries of approved drugs and bioactive compounds (AID 1345084); details: Gynecologic cancer cell panel viability, ATPlite luminescence, 48 h; series mostly up to 57.5 µM; further: nearly all actives have a fitted effect of over 55% in size
# Outline: (§3)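 ATP-based viability (ATPlite), 1,000 cells/well, 16 h pre-incubation, 48 h compound at 37 C, 5% CO2, 15 min RT before read.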
# CAOV3 = experiment: as above; details: Gynecologic cancer cell panel viability, ATPlite luminescence, 48 h; series mostly up to 57.5 µM
# Outline: as §3
# On the % scale 0 is the no-effect control and ±100 the full control effect; potency means the concentration at half of the fitted maximal effect; tags describe the fitted curve by direction and shape.
smiles,measurement,setting,value
Cc1c(C(=O)Nc2ccc(N3C[C@@H](C)O[C@@H](C)C3)nc2)cccc1-c1ccc(OC(F)(F)F)cc1,Potency,KB-3-1,"inconclusive: 11.8 µM [inhibitor, full curve]"
same,Potency,NIH3T3,"active: 20.9 µM and inconclusive: 23.1 µM [inhibitor, single point]"
same,Potency,UISO,"inconclusive: 37.2 µM [inhibitor, single point]"
CC=C1NC(=O)[C@H]2CSSCCC=C[C@H](CC(=O)N[C@H](C(C)C)C(=O)N2)OC(=O)[C@H](C(C)C)NC1=O,Potency,KB-3-1,"inconclusive: 0.0332 µM [inhibitor, full curve, poor fit]"
same,Potency,MCC-13,active: 0.235 µM
same,Potency,MCC-26,active: 0.0662 µM
C=CCc1cccc(C=NNC(=O)CN2CCN(Cc3ccccc3)CC2)c1O,Potency,KB-3-1,"inconclusive: 18.7 µM [inhibitor, partial curve]"
same,Potency,NIH3T3,"inconclusive: 14.8 µM [inhibitor, partial curve]"
same,Potency,UISO,"inconclusive: 16.6 µM [inhibitor, partial curve]"
Nc1nc2c(ncn2COC(CO)CO)c(=O)[nH]1,Potency,KB-3-1,"inconclusive: 33.2 µM [inhibitor, single point]"
same,Potency,NIH3T3,"inconclusive: 29.6 µM [inhibitor, single point]"
same,Potency,MCC-13,active: 20.9 µM
same,Potency,UISO,active: 18.7 µM
same,Potency,WaGa,"inactive and inconclusive: 18.7 µM [inhibitor, partial curve]"
CC(=O)O[C@@]12CO[C@H]1C[C@H](O)[C@@]1(C)C(=O)[C@H](O)C3=C(C)[C@@H](OC(=O)C(O)[C@@H](NC(=O)OC(C)(C)C)c4ccccc4)C[C@@](O)([C@@H](OC(=O)c4ccccc4)[C@@H]21)C3(C)C (stereo partly drawn),Potency,KB-3-1,active: 0.0526 µM
same,Potency,MCC-13,"inconclusive: 0.0019 µM [inhibitor, full curve]"
same,Potency,MCC-26,inconclusive: 0.001 µM [inhibitor]
CNC(=O)c1cc(Oc2ccc(NC(=O)Nc3ccc(Cl)c(C(F)(F)F)c3)cc2)ccn1,Potency,KB-3-1,"active: 14.8 µM and inconclusive: 18.4 µM [inhibitor, single point] and active: 6.51 µM"
same,Potency,NIH3T3,"inconclusive: 29.1 µM [inhibitor, single point]"
same,Potency,MKL-1,"inconclusive: 23.5 µM [inhibitor, single point] and inconclusive: 21.1 µM [inhibitor, single point]"
same,Potency,MKL-2,"inconclusive: 20.9 µM [inhibitor, single point]"
same,Potency,UISO,"inconclusive: 20.9 µM [inhibitor, single point] and inconclusive: 26.6 µM [inhibitor, single point]"
same,Potency,WaGa,"inconclusive: 20.9 µM [inhibitor, partial curve] and active: 23.7 µM"
same,Potency,C33A,"inconclusive: 39.8 µM [cytotoxic, single point] and inconclusive: 35.5 µM [cytotoxic, single point]"
same,Potency,CAOV3,"inconclusive: 39.8 µM [cytotoxic, single point]"
Cc1cc2c(F)c(Oc3ncnn4cc(OC[C@@H](C)O)c(C)c34)ccc2[nH]1,Potency,KB-3-1,"inconclusive: 16.6 µM [inhibitor, partial curve, poor fit]"
same,Potency,NIH3T3,"inconclusive: 20.9 µM [inhibitor, partial curve]"
same,Potency,MKL-2,"inconclusive: 37.2 µM [inhibitor, single point]"
same,Potency,UISO,"inconclusive: 26.4 µM [inhibitor, single point]"
C[C@@H](N)c1ccc(C(=O)Nc2ccnc3[nH]ccc23)cc1,Potency,KB-3-1,"inconclusive: 29.1 µM [inhibitor, single point]"
same,Potency,NIH3T3,active: 23.5 µM and active: 16.4 µM
same,Potency,MCC-13,"inconclusive: 14.8 µM [inhibitor, partial curve]"
same,Potency,UISO,"inconclusive: 26.4 µM [inhibitor, single point]"
same,Potency,WaGa,"inconclusive: 11.8 µM [inhibitor, partial curve]"
same,Potency,C33A,"inconclusive: 31.6 µM [cytotoxic, partial curve, poor fit]"
same,Potency,CAOV3,"inconclusive: 22.4 µM [cytotoxic, partial curve, poor fit]"
N#CC[C@H](C1CCCC1)n1cc(-c2ncnc3[nH]ccc23)cn1,Potency,KB-3-1,"inconclusive: 33.2 µM [inhibitor, single point] and inconclusive: 25.9 µM [inhibitor, single point]"
same,Potency,NIH3T3,"inconclusive: 37.2 µM [inhibitor, single point]"
same,Potency,UISO,"inconclusive: 16.6 µM [inhibitor, partial curve]"
NCc1c[nH]c(=S)n1[C@H]1CCc2c(F)cc(F)cc2C1,Potency,KB-3-1,"inconclusive: 29.6 µM [inhibitor, single point]"
same,Potency,NIH3T3,"inconclusive: 37.2 µM [inhibitor, single point]"
same,Potency,MKL-1,"inconclusive: 18.7 µM [inhibitor, partial curve, poor fit]"
same,Potency,UISO,"inconclusive: 33.2 µM [inhibitor, single point]"
COc1ccc(-c2cc3nccn3c(Nc3ncccc3C(N)=O)n2)cc1OC,Potency,KB-3-1,"inconclusive: 29.1 µM [inhibitor, single point]"
same,Potency,NIH3T3,"inconclusive: 3.32 µM [inhibitor, full curve] and inconclusive: 6.51 µM [inhibitor, full curve]"
same,Potency,UISO,"inconclusive: 8.33 µM [inhibitor, single point]"
same,Potency,CAOV3,inactive
CCCS(=O)(=O)Nc1ccc(F)c(C(=O)c2c[nH]c3ncc(-c4ccc(Cl)cc4)cc23)c1F,Potency,KB-3-1,"inconclusive: 23.1 µM [inhibitor, partial curve, poor fit]"
same,Potency,NIH3T3,"inconclusive: 33.2 µM [inhibitor, single point]"
same,Potency,UISO,inactive
CC(C)c1c(C(=O)Nc2ccccc2)c(-c2ccccc2)c(-c2ccc(F)cc2)n1CC[C@H](O)C[C@@H](O)CC(=O)O,Potency,KB-3-1,"inconclusive: 26.4 µM [inhibitor, single point]"
same,max response,NIH3T3,inactive: -10.9%
same,Potency,UISO,active: 14.8 µM
same,Potency,WaGa,active: 23.5 µM
CNC(=O)c1c(-c2ccc(F)cc2)oc2cc(N(CCO)S(C)(=O)=O)c(C3CC3)cc12,Potency,KB-3-1,"inconclusive: 33.2 µM [inhibitor, single point]"
same,Potency,NIH3T3,"inconclusive: 16.6 µM [inhibitor, partial curve, poor fit]"
same,Potency,MCC-13,"inconclusive: 29.6 µM [inhibitor, single point]"
same,Potency,UISO,"inconclusive: 20.9 µM [inhibitor, partial curve, poor fit]"
same,Potency,WaGa,"inconclusive: 26.4 µM [inhibitor, partial curve, poor fit]"
same,Potency,CAOV3,inactive
Cc1ccccc1C(=O)c1ccc(Nc2ccc(Br)cc2N)cc1Cl,Potency,KB-3-1,"inconclusive: 33.2 µM [inhibitor, single point] and inconclusive: 18.4 µM [inhibitor, single point]"
same,max response,NIH3T3,inactive: -21.7%
same,Potency,MKL-2,"inconclusive: 5.26 µM [inhibitor, partial curve, poor fit]"
same,Potency,UISO,"inconclusive: 20.9 µM [inhibitor, single point]"
same,Potency,WaGa,"inconclusive: 14.8 µM [inhibitor, partial curve]"
same,Potency,C33A,"inconclusive: 25.1 µM [cytotoxic, partial curve, poor fit]"
CCN(CCO)CCCOc1ccc2c(Nc3cc(CC(=O)Nc4cccc(F)c4)[nH]n3)ncnc2c1,Potency,KB-3-1,"inconclusive: 0.0651 µM [inhibitor, full curve, poor fit]"
same,Potency,NIH3T3,"inconclusive: 3.26 µM [inhibitor, full curve]"
same,Potency,MKL-1,"inconclusive: 0.118 µM [inhibitor, full curve]"
same,Potency,MKL-2,"inconclusive: 0.662 µM [inhibitor, full curve, poor fit]"
same,Potency,WaGa,"inconclusive: 0.148 µM [inhibitor, full curve]"
Fc1ccc(CNc2ncnc3ccc(F)cc23)cc1,Potency,KB-3-1,"inconclusive: 2.64 µM [inhibitor, full curve] and inconclusive: 5.8 µM [inhibitor, partial curve]"
same,Potency,NIH3T3,"inconclusive: 25.9 µM [inhibitor, single point]"
same,Potency,MKL-1,"inconclusive: 11.8 µM [inhibitor, partial curve]"
same,Potency,UISO,"inconclusive: 9.35 µM [inhibitor, full curve]"
same,Potency,WaGa,"inconclusive: 8.33 µM [inhibitor, partial curve]"
same,Potency,C33A,"inconclusive: 14.1 µM [cytotoxic, partial curve]"
CCCCCCCc1ccc(CCc2cccc(O)c2C(=O)O)cc1,Potency,KB-3-1,"inconclusive: 33.2 µM [inhibitor, partial curve, poor fit]"
same,Potency,MCC-13,inactive
COc1cc2nccc(Oc3ccc(NC(=O)Nc4cc(C)on4)c(Cl)c3)c2cc1OC,Potency,KB-3-1,"active: 18.7 µM and inconclusive: 20.6 µM [inhibitor, single point]"
same,Potency,MCC-13,"inconclusive: 23.5 µM [inhibitor, single point]"
same,Potency,MCC-26,"inconclusive: 33.2 µM [inhibitor, single point]"
same,Potency,MKL-2,"inconclusive: 13.2 µM [inhibitor, partial curve]"
same,Potency,UISO,"inconclusive: 18.7 µM [inhibitor, partial curve]"
same,Potency,WaGa,active: 23.5 µM
same,Potency,C33A,"inconclusive: 25.1 µM [cytotoxic, partial curve, poor fit]"
same,Potency,CAOV3,"inconclusive: 39.8 µM [cytotoxic, single point]"
Cc1ccc(S(=O)(=O)N[C@@H](Cc2ccccc2)C(=O)CCl)cc1,max response,KB-3-1,inactive: 6.1%
same,Potency,MCC-26,inactive
same,Potency,MKL-1,"inconclusive: 37.2 µM [inhibitor, single point]"
same,Potency,MKL-2,"inconclusive: 18.7 µM [inhibitor, single point]"
same,Potency,UISO,"inconclusive: 20.9 µM [inhibitor, single point]"
same,Potency,WaGa,"inconclusive: 23.5 µM [inhibitor, single point]"
